In patent publication US5502035A, “N-terminus modified analogs of LHRH” (Tap Holdings Inc., priority 1994, dated 1996):
At least one structure is not confirmed: it was looked up by name or label, or the drawing left a doubt. Non-standard residues stand in square brackets, D forms with d. Residues, ends and D or L forms follow the SMILES beside them. Groups on a side chain read outwards from the residue. ξ: configuration not given here. *: point of attachment. NMePhe(4-NO2) = CN[C@@H](Cc1ccc([N+](=O)[O-])cc1)C(=O)O; Shikimoyl = O=C(C1=C[C@@H](O)[C@@H](O)[C@H](O)C1)*; ξTetrahydrofuran2carbonyl = O=C(C1CCCO1)*; Tetrahydrofuroyl(2R) = O=C([C@H]1CCCO1)*; dPhe(4-Cl) = N[C@H](Cc1ccc(Cl)cc1)C(=O)O; X5 = O=C(C1C[C@@H](O)C(O)[C@H](O)C1)*; d2Nal = N[C@H](Cc1ccc2ccccc2c1)C(=O)O; Lys(iPr) = CC(C)NCCCC[C@H](N)C(=O)O; NMeY = CN[C@@H](Cc1ccc(O)cc1)C(=O)O; dBta = N[C@H](Cc1csc2ccccc12)C(=O)O; hArg = N=C(N)NCCCC[C@H](N)C(=O)O; d3Pal = N[C@H](Cc1cccnc1)C(=O)O; Nicotinoyl = O=C(c1cccnc1)*; 2Furoyl = O=C(c1ccco1)*; X1 = O=C([C@@H]1CCCO1)*; Ahp = NCCCCCCC(=O)O; Ahx = NCCCCCC(=O)O; Ava = NCCCCC(=O)O; azaGly = NNC(=O)O; Sar = CNCC(=O)O

Molecular target: T1, LHRH (Rattus norvegicus, UniProt P30969)
T1 construct: endogenous in cells; host or cells: rat pituitary cells (own knowledge of the cited Haviv 1989 method)
T1 sequence (P30969 1-327): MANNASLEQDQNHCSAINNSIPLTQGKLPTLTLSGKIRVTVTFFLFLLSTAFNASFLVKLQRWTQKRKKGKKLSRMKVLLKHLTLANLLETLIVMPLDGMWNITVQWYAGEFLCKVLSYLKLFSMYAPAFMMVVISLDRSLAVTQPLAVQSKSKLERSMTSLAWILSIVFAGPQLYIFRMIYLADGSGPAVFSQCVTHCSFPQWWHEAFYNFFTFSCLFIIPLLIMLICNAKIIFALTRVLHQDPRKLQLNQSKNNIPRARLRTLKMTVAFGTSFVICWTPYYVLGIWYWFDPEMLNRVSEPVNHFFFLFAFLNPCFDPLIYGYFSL
Assay: in vitro test for LHRH antagonist potency (pA2)
Assay type: cell-based
Settings: negative logarithm of the antagonist concentration required to shift the response curve produced by the agonist leuprolide to two-fold higher concentration
Protocol: Representative compounds of the present invention were evaluated in an in vitro test for LHRH antagonist potency (pA2). The test employed the method detailed in F. Haviv, et al. J. Med. Chem., 32:2340-2344 (1989). The values of pA2 are the negative logarithms of the concentration of the particular antagonist test compound required to shift the response curve produced by the agonist leuprolide to two-fold higher concentration. (Leuprolide is the LHRH agonist having the structure 5-oxo-Pro^1 -His^2 -Trp^3 -Ser^4 -Tyr^5 -D-Leu^6 -Leu^7 -Arg^8 -Pro^9 -NHEt and is disclosed and claimed in U.S. Pat. No. 4,005,063.) Typically pA2 values of 9.5 or greater are indicative of good LHRH antagonist potency, with values of 10.0 or greater being preferred.

Structure (SMILES) | pA2
CC(C)C[C@H](NC(=O)[C@@H](CCCCNC(=O)CNC(=O)c1cccnc1)NC(=O)[C@H](Cc1ccc(O)cc1)N(C)C(=O)[C@H](CO)NC(=O)[C@@H](Cc1cccnc1)NC(=O)[C@@H](Cc1ccc(Cl)cc1)NC(=O)[C@@H](Cc1ccc2ccccc2c1)NC(=O)CNC(=O)C1CCCO1)C(=O)N[C@@H](CCCCNC(C)C)C(=O)N1CCC[C@H]1C(=O)N[C@H](C)C(N)=O (mixture of isomers) [Example 12, N-(R,S)Tetrahydrofur-2-oyl-D2Nal-D4ClPhe-D3Pal-Ser-NMeTyr-DLys(Gly-Nicotinyl) -Leu-Lys(N-epsilon-Isopropyl)-Pro-DAlaNH2] (ξTetrahydrofuran2carbonyl-G[d2Nal][dPhe(4-Cl)][d3Pal]S[NMeY][dK]([Gly-Nicotinoyl])L[Lys(iPr)]P[dA]-NH2) | 10.36
CC(C)C[C@H](NC(=O)[C@@H](CCCCNC(=O)c1cccnc1)NC(=O)[C@H](Cc1ccc(O)cc1)N(C)C(=O)[C@H](CO)NC(=O)[C@@H](Cc1cccnc1)NC(=O)[C@@H](Cc1ccc(Cl)cc1)NC(=O)[C@@H](Cc1ccc2ccccc2c1)NC(=O)CNC(=O)C1C[C@@H](O)C(O)[C@H](O)C1)C(=O)N[C@@H](CCCCNC(C)C)C(=O)N1CCC[C@H]1C(=O)N[C@H](C)C(N)=O (stereo partly drawn) [Example 2b, N-Dihydroshikimyl-Gly-D2Nal-D4ClPhe-D3Pal-Ser-NMeTyr-DLys(N-epsilon-Nicotinyl) -Leu-Lys(N-epsilon-Isopropyl)-Pro-DAlaNH2] (X5-G[d2Nal][dPhe(4-Cl)][d3Pal]S[NMeY][dK](Nicotinoyl)L[Lys(iPr)]P[dA]-NH2) | 10.3
CC(C)C[C@H](NC(=O)[C@@H](CCCCNC(=O)c1cccnc1)NC(=O)[C@H](Cc1ccc(O)cc1)N(C)C(=O)[C@H](CO)NC(=O)[C@@H](Cc1cccnc1)NC(=O)[C@@H](Cc1ccc(Cl)cc1)NC(=O)[C@@H](Cc1ccc2ccccc2c1)NC(=O)CCCCNC(=O)c1cccnc1)C(=O)N[C@@H](CCCCNC(C)C)C(=O)N1CCC[C@H]1C(=O)N[C@H](C)C(N)=O [Example 6e, N-Nicotinyl-5Aminovaleryl-D2Nal-D4ClPhe-D3Pal-Ser-NMeTyr-DLys(N-epsilon-Nicotinyl) -Leu-Lys(N-epsilon-Isopropyl)-Pro-DAlaNH2] ({Nicotinoyl-Ava}-[d2Nal][dPhe(4-Cl)][d3Pal]S[NMeY][dK](Nicotinoyl)L[Lys(iPr)]P[dA]-NH2) | 11.02
CC(C)C[C@H](NC(=O)[C@@H](CCCCNC(=O)NNC(=O)c1ccco1)NC(=O)[C@H](Cc1ccc(O)cc1)N(C)C(=O)[C@H](CO)NC(=O)[C@@H](Cc1cccnc1)NC(=O)[C@@H](Cc1ccc(Cl)cc1)NC(=O)[C@@H](Cc1ccc2ccccc2c1)NC(=O)CNC(=O)c1cccnc1)C(=O)N[C@@H](CCCCNC(C)C)C(=O)N1CCC[C@H]1C(=O)N[C@H](C)C(N)=O [Example 10, N-Nicotinyl-Gly-D2Nal-D4ClPhe-D3Pal-Ser-NMeTyr-DLys(Azagly-2Furoyl)-Leu-Lys(N-epsilon-Isopropyl) -Pro-DAlaNH2] (Nicotinoyl-G[d2Nal][dPhe(4-Cl)][d3Pal]S[NMeY][dK]([azaGly-2Furoyl])L[Lys(iPr)]P[dA]-NH2) | 10.41
CC(C)C[C@H](NC(=O)[C@@H](CCCCNC(=O)C1=C[C@@H](O)[C@@H](O)[C@H](O)C1)NC(=O)[C@H](Cc1ccc(O)cc1)N(C)C(=O)[C@H](CO)NC(=O)[C@@H](Cc1cccnc1)NC(=O)[C@@H](Cc1ccc(Cl)cc1)NC(=O)[C@@H](Cc1ccc2ccccc2c1)NC(=O)CNC(=O)[C@@H]1CCCO1)C(=O)N[C@@H](CCCNC(=N)N)C(=O)N1CCC[C@H]1C(=O)N[C@H](C)C(N)=O [Example 14m, N-(S)-Tetrahydrofur-2-oyl-Gly-D2Nal-D4ClPhe-D3Pal-Ser-NMeTyr-DLys(Shik)-Leu-Arg-Pro-DAlaNH2] (X1-G[d2Nal][dPhe(4-Cl)][d3Pal]S[NMeY][dK](Shikimoyl)LRP[dA]-NH2) | 10.75
CC(C)C[C@H](NC(=O)[C@@H](CCCCNC(=O)C1=C[C@@H](O)[C@@H](O)[C@H](O)C1)NC(=O)[C@H](Cc1ccc(O)cc1)N(C)C(=O)[C@H](CO)NC(=O)[C@@H](Cc1cccnc1)NC(=O)[C@@H](Cc1ccc(Cl)cc1)NC(=O)[C@@H](Cc1ccc2ccccc2c1)NC(=O)CNC(=O)[C@H]1CCCO1)C(=O)N[C@@H](CCCNC(=N)N)C(=O)N1CCC[C@H]1C(=O)N[C@H](C)C(N)=O [Example 14n, N-(R)-Tetrahydrofur-2-oyl-Gly-D2Nal-D4ClPhe-D3Pal-Ser-NMeTyr-DLys(Shik)-Leu-Arg-Pro-DAlaNH2] ({Tetrahydrofuroyl(2R)}-G[d2Nal][dPhe(4-Cl)][d3Pal]S[NMeY][dK](Shikimoyl)LRP[dA]-NH2) | 11.17
CC(C)C[C@H](NC(=O)[C@@H](CCCCNC(=O)C1=C[C@@H](O)[C@@H](O)[C@H](O)C1)NC(=O)[C@H](Cc1ccc([N+](=O)[O-])cc1)N(C)C(=O)[C@H](CO)NC(=O)[C@@H](Cc1cccnc1)NC(=O)[C@@H](Cc1ccc(Cl)cc1)NC(=O)[C@@H](Cc1ccc2ccccc2c1)NC(=O)CNC(=O)C1=C[C@@H](O)[C@@H](O)[C@H](O)C1)C(=O)N[C@@H](CCCCNC(=N)N)C(=O)N1CCC[C@H]1C(=O)N[C@H](C)C(N)=O [Example 26c, N-Shikimyl-Gly-D2Nal-D4ClPhe-D3Pal-Ser-NMePhe(NO2)-DLys(Shik)-Leu-Harg-Pro-DAlaNH2] (Shikimoyl-G[d2Nal][dPhe(4-Cl)][d3Pal]S[NMePhe(4-NO2)][dK](Shikimoyl)L[hArg]P[dA]-NH2) | 11.62
CC(C)C[C@H](NC(=O)[C@@H](CCCCNC(=O)c1cccnc1)NC(=O)[C@H](Cc1ccc(O)cc1)N(C)C(=O)[C@H](CO)NC(=O)[C@@H](Cc1csc2ccccc12)NC(=O)[C@@H](Cc1ccc(Cl)cc1)NC(=O)CN(C)C(=O)c1cccnc1)C(=O)N[C@@H](CCCCNC(C)C)C(=O)N1CCC[C@H]1C(=O)N[C@H](C)C(N)=O [Example 34, N-Nicotinyl-Sar-D4ClPhe-DBal-Ser-NMeTyr-DLys(Nic)-Leu-Lys(Isp)-Pro-DAlaNH2] (Nicotinoyl-[Sar][dPhe(4-Cl)][dBta]S[NMeY][dK](Nicotinoyl)L[Lys(iPr)]P[dA]-NH2) | 9.95
CC(C)C[C@H](NC(=O)[C@@H](CCCCNC(=O)c1cccnc1)NC(=O)[C@H](Cc1ccc(O)cc1)N(C)C(=O)[C@H](CO)NC(=O)[C@@H](Cc1cccnc1)NC(=O)[C@@H](Cc1ccc(Cl)cc1)NC(=O)[C@@H](Cc1ccc2ccccc2c1)NC(=O)CNC(=O)[C@@H]1CCCO1)C(=O)N[C@@H](CCCCNC(C)C)C(=O)N1CCC[C@H]1C(=O)N[C@H](C)C(=O)O [Example 84, N (S)-2-Tetrahydrofuroyl-Gly-D2Nal-D4ClPhe-D3Pal-Ser-NMeTyr-DLys(N-epsilon-Nicotinyl) -Leu-Lys(N-epsilon-Isopropyl)-Pro-DAlaOH] (X1-G[d2Nal][dPhe(4-Cl)][d3Pal]S[NMeY][dK](Nicotinoyl)L[Lys(iPr)]P[dA]-OH) | 10.42
CC(C)C[C@H](NC(=O)[C@@H](CCCCNC(=O)c1cccnc1)NC(=O)[C@H](Cc1ccc(O)cc1)N(C)C(=O)[C@H](CO)NC(=O)[C@@H](Cc1cccnc1)NC(=O)[C@@H](Cc1ccc(Cl)cc1)NC(=O)[C@@H](Cc1ccc2ccccc2c1)NC(=O)CCCCCCNC(=O)[C@@H]1CCCO1)C(=O)N[C@@H](CCCCNC(C)C)C(=O)N1CCC[C@H]1C(=O)N[C@H](C)C(N)=O [Example 98, N (S)-2-Tetrahydrofuroyl-Aha-D2Nal-D4ClPhe-D3Pal-Ser-NMeTyr-DLys(Nic)-Leu-Lys(Isp)-Pro-DAlaNH2] ({X1-Ahp}-[d2Nal][dPhe(4-Cl)][d3Pal]S[NMeY][dK](Nicotinoyl)L[Lys(iPr)]P[dA]-NH2) | 10.44
CC(C)C[C@H](NC(=O)[C@@H](CCCCNC(=O)c1cccnc1)NC(=O)[C@H](Cc1ccc(O)cc1)N(C)C(=O)[C@H](CO)NC(=O)[C@@H](Cc1cccnc1)NC(=O)[C@@H](Cc1ccc(Cl)cc1)NC(=O)[C@@H](Cc1ccc2ccccc2c1)NC(=O)CCCCCNC(=O)[C@@H]1CCCO1)C(=O)N[C@@H](CCCCNC(C)C)C(=O)N1CCC[C@H]1C(=O)N[C@H](C)C(N)=O [Example 102, N (S)-2-Tetrahydrofuroyl-Aca-D2Nal-D4ClPhe-D3Pal-Ser-NMeTyr-DLys(Nic)-Leu-Lys(Isp)-Pro-DAlaNH2] ({X1-Ahx}-[d2Nal][dPhe(4-Cl)][d3Pal]S[NMeY][dK](Nicotinoyl)L[Lys(iPr)]P[dA]-NH2) | 10.24
